Out of some 52,000 compounds screened, about 1,700 (3.3%) were called active. Rule as the data show it: active = survival mostly below about 52% (no sharp cut-off); inactive = mostly above about 56%. Some of the results follow.
The compounds below were run on Wild type (assay: S. aureus survival, RN4220 and DeltatarO strains – OD600, teichoic acid synthesis inhibitors, primary screen (AID 463173)). Settings: S. aureus RN4220 wild type/DeltatarO growth, OD600, 18 h, hits give low values; concentration not given here unless noted.

Row | SMILES | survival
1 | N#CC(C#N)=Cc1ccc(N2CCCC2)cc1 | inactive: 106%
2 | c1cc(C2CCNCC2)ccn1 | inactive: 104%
3 | COc1cccc(/C=C/c2nc3ccccc3c(=O)n2-c2ccc(Cl)cc2)c1OC | inactive: 69%
4 | Cc1ccc(-n2c(/C=C/c3cccs3)nc3ccccc3c2=O)cc1C | inactive: 99%
5 | C=CCN1C(=O)CN=C(c2cccs2)c2c1sc1c2CCC1 | inactive: 112%
6 | COc1ccc(C)cc1NC(=O)c1cccn(Cc2cccc([N+](=O)[O-])c2)c1=O | inactive: 93%
7 | CN1C2CCC1CC(OC(=O)C1(c3ccccc3)CCCC1)C2 (centres undefined) | inactive: 103%
8 | CSc1ccc(CN2CCN(C(=O)COc3ccc(C)cc3)CC2)cc1 | inactive: 65%
9 | CCOc1ccc2nc(NC(=O)c3cccn(Cc4ccccc4)c3=O)sc2c1 | inactive: 69%
10 | CN1CCc2nc3sc4c(=O)[nH]c(=O)[nH]c4c3cc2C1 | inactive: 107%
11 | CN1CCN(C2CC3(C)C(CCC4C3CCC3(C)C(O)C(N5CCN(C)CC5)CC43)CC2O)CC1 (centres undefined) | inactive: 99%
12 | COc1ccc(OC)c(NC(=O)Cn2cc(C(=O)c3ccccc3)c3ccccc32)c1 | inactive: 78%
13 | O=C(Nc1ccc(Cl)cc1C(=O)c1ccccc1)c1cc(Cl)cc(Cl)c1 | inactive: 140%
14 | CN1CCCC1c1ccc(N)nc1 (centres undefined) | inactive: 108%
15 | COc1ccc(OC)c(/C=C2\C(=O)C3CCN2CC3)c1 | inactive: 116%
16 | CCOc1ccc2nc(NC(=O)c3cccn(Cc4ccc(Cl)cc4)c3=O)sc2c1 | inactive: 63%
17 | COc1ccc(-c2nc(CN3C(=O)CN=C(c4ccccc4)c4cc(Cl)ccc43)c(C)o2)cc1 | inactive: 73%
18 | O=C(Nc1ccc2c(c1)OCCO2)c1cccn(Cc2cccc(F)c2)c1=O | inactive: 82%
19 | CCc1ccccc1NC(=O)c1cccn(Cc2ccccc2F)c1=O | inactive: 60%
20 | COc1ccc(NC(C)=O)cc1NC(=O)c1cccn(Cc2ccccc2)c1=O | inactive: 59%
21 | CCOC(=O)C1C2NC(=S)NC1(C)Oc1ccccc12 (centres undefined) | inactive: 104%
22 | CC(C)C(=O)N1N=C(c2cccnc2)CC1(O)C(F)(F)F (centres undefined) | inactive: 112%

Row | SMILES | survival
23 | N#Cc1cccc(NC(=O)CSc2nc3c(cc2C#N)N2CCC3CC2)c1 | inactive: 76%
24 | Cc1nnc(NC(=O)c2cccn(Cc3cccc([N+](=O)[O-])c3)c2=O)s1 | inactive: 83%
25 | CC(=O)NC1CC2CCC(C1)N2 (centres undefined) | inactive: 94%
26 | O=c1c2ccccc2nc(-c2ccccc2)n1-c1ccccn1 | inactive: 96%
27 | CC1(C)C(C(=O)Nc2cc(Cl)ccn2)C1(C)C | inactive: 124%
28 | Cc1ccccc1-n1c(/C=C/c2ccc(O)cc2)nc2ccccc2c1=O | inactive: 48%
29 | CC(C)(C)c1ccc(OCC(=O)Nc2ccc(Cl)cc2C(=O)c2ccccc2)cc1 | inactive: 63%
30 | CCOc1ccccc1CN(CCc1ccc2c(c1)OCO2)Cc1ccc(CC)cc1 | inactive: 50%
31 | CSc1ncc(C(=O)Nc2ccc(Cl)cc2C(=O)c2ccccc2)c(C)n1 | inactive: 88%
32 | O=c1cccc2n1CC1CC2CN(c2nc(Cl)nc(Cl)n2)C1 (centres undefined) | inactive: 103%
33 | CCN(CC)C(=O)c1ccc(NC(=O)Cn2nc(-c3ccc(C)cc3)c3ccccc3c2=O)cc1 | inactive: 80%
34 | Cc1ccc(Cn2cccc(C(=O)Nc3nnc(C)s3)c2=O)cc1 | inactive: 84%
35 | CCOC(=O)c1ccc(NC(=O)c2cccn(Cc3ccc(C)cc3)c2=O)cc1 | inactive: 73%
36 | c1cc2c(cc1CN1CCNCC1)OCO2 | inactive: 118%
37 | COc1ccc(CC2C(=O)N(C)C(=O)N(C)C2=O)cc1 | inactive: 112%
38 | Cc1ccc(NC(=O)N(Cc2ccc3c(c2)OCO3)C2CCN(Cc3ccccc3)CC2)cc1Cl | inactive: 133%
39 | CCOC(=O)C1=C(C)NC(C)=C2C(=O)Oc3ccccc3C12 (centres undefined) | inactive: 108%
40 | c1cc(CN2CCNCC2)ccn1 | inactive: 107%
41 | N#Cc1cc2c(nc1SCC(=O)Nc1ccc(F)c(Cl)c1)C1CCN2CC1 | active: -2%
42 | O=C(Nc1ccc(Br)cc1C(=O)c1ccccc1Cl)c1ccccc1F | inactive: 76%
43 | COc1ccc(CCNCc2ccc3c(c2)n(C)c(=O)n3C)cc1 | inactive: 84%
44 | O=C1CC(c2ccc(F)cc2)c2c(c3ccccc3oc2=O)O1 (centres undefined) | inactive: 67%

Row | SMILES | survival
45 | CCOC(=O)CC1=C(C(=O)OCC)C2(C(=O)N(C)c3ccccc32)C(C#N)=C(N)O1 (centres undefined) | inactive: 83%
46 | CN1C(=O)C(Cc2nc3ccccc3c(=O)n2-c2ccccc2)c2ccccc21 (centres undefined) | inactive: 117%
47 | CCOc1ccc(NC(=O)c2cccn(Cc3cccc(Cl)c3)c2=O)cc1 | inactive: 93%
48 | COc1ccc(NC(=O)CCc2nc(C3=CCN(Cc4cccc(Cl)c4)CC3)no2)cc1OC | inactive: 76%
49 | Cc1oc(-c2ccccc2Cl)nc1CN1C(=O)CN=C(c2ccccc2)c2cc(Cl)ccc21 | inactive: 82%
50 | CCCOc1ccc(CCN)cc1Cl | inactive: 107%
51 | CC(c1ccccc1F)n1cc(C(=O)NC2CCCC2)nn1 (centres undefined) | inactive: 103%
52 | Cc1ccc(-n2nc(C)c3c2NC(=O)CSC3c2ccc(O)cc2)cc1Cl (centres undefined) | inactive: 91%
53 | Clc1ccc(NCCN2CCCCCC2)nn1 | inactive: 126%
54 | O=c1c2ccccc2nc(/C=C/c2ccccc2O)n1-c1ccc(Br)cc1 | inactive: 68%
55 | COC1=CC23CCN(C)C(Cc4ccc(OC)c(O)c42)C3=CC1=O (centres undefined) | inactive: 115%
56 | CCCC12CN3CC(C)(CN(C1)C3c1ccccn1)C2=O (centres undefined) | inactive: 86%
57 | c1ccc2c(CCNC3CCNCC3)c[nH]c2c1 | inactive: 96%
58 | Cc1ccc(NC(=O)CN2C(=O)CN=C(c3ccccc3)c3ccccc32)c(C)c1 | inactive: 84%
59 | O=C(c1ccc2c(c1)N(Cc1ccc(F)cc1Cl)C(=O)c1ccccc1S2)N1CCC2(CC1)OCCO2 | inactive: 78%
60 | N=C1SCC(=O)N1Cc1ccccc1 | inactive: 112%
61 | O=c1c2ccccc2nc(-c2ccco2)n1-c1nccs1 | inactive: 99%
62 | CC(C)OC12Oc3ccccc3C=C1N1CCC2CC1 (centres undefined) | inactive: 105%
63 | CCCCc1nc2ccccc2c(=O)n1-c1cccc(OC)c1 | inactive: 98%
64 | Nc1c(C(=O)Nc2ccc(OC(F)(F)F)cc2)sc2nc3c(cc12)N1CCC3CC1 | inactive: 167%

Reference: PubChem BioAssay AID463173 (ICCB-Longwood Screening Facility, Harvard Medical School, 2010)
